Test results published in PubChem BioAssay AID1745845 (National Center for Advancing Translational Sciences (NCATS), 2022).
“And” between values parts separate entries of the source, which are not always exact repeats. Equal values may be shown once. Hit rate of the full screen: of about 360,000 compounds, about 2,600 (0.72%) were called active. Inconclusive results, whose numbers are uncertain, are shown with a selection of clear calls. Calls come from the whole dose curve; as a rule, active = well fitted inhibition curve with a large enough effect; inconclusive = small, poorly fitted or top-dose-only effect; inactive = no such curve, though single readings can be large or run the other way. Where the call is inconclusive, the potency comes from a doubtful curve fit.
% is set by controls: 0 for no effect and ±100 for the full control effect; potency is the fitted concentration of half-maximal effect; tags give direction and shape of the fitted curve.

Experiment: Primary qHTS for Inhibitors of ATXN expression; note: nearly all actives have a fitted effect of over 55% in size
Settings: HEK-293 ATXN2-luciferase reporter, luminescence, 24 h; activity change, negative = inhibition: at 57 µM (top of the series)
Summary of the method: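 ATXN2-luciferase reporter cells (luciferase flanked by upstream and downstream ATXN2 gene portions) were treated 24 h at 37 °C with compounds at up to 57 uM. SteadyGlo luminescence gave expression; GF-AFC fluorescence gave viability.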
For `COc1cc(OC)cc(C(=O)N[C@H](C(=O)Nc2ccc(NC(C)=O)cc2)C(C)C)c1`, the “activity change, negative = inhibition” value was inactive: -1.41%. In the case of `COCCn1c(=NC(=O)C2COc3ccccc3O2)sc2cc(S(N)(=O)=O)ccc21` (stereo not drawn), the “activity change, negative = inhibition” value is reported as inactive: -5.15%. For `Cc1ccc([C@H]2C[C@@H](O)[C@H](n3cc(-c4ccc(F)cc4)nn3)CN2C(=O)C2CCCCC2)cc1`, the Potency was inconclusive: 39.8 µM [inhibitor, single point]. In the case of `O=C(CNC(=O)c1ccc(S(=O)(=O)N2CCCC2)cc1)N/N=C/c1ccc(Cl)cc1Cl`, the Potency is reported as inconclusive: 12.6 µM [inhibitor, partial curve, poor fit]. With `CCCCCn1c(CCNC(=O)c2cccc(C)c2)nc2ccccc21` the Potency was inconclusive: 35.5 µM [inhibitor, single point]. In the case of `CN(C)c1nc(N/N=C/c2c[nH]c3ccccc23)nc(N2CCOCC2)n1`, the Potency is reported as inconclusive: 33.6 µM [inhibitor, partial curve, poor fit]. In the case of `Cc1sc(NC(=O)c2ccco2)c(CN2CCN(Cc3ccccc3)CC2)c1C`, the Potency is reported as inconclusive: 15.8 µM [inhibitor, single point]. With `CCOc1ccc(Nc2oc(/C=C/c3cccc(OC)c3)nc2C#N)cc1` the “activity change, negative = inhibition” value was inactive: 7%. In the case of `O[C@H]1CN(Cc2cccs2)[C@@H](c2ccccc2)C[C@@H]1n1cc(-c2ccc(F)cc2)nn1`, the Potency is reported as inconclusive: 39.8 µM [inhibitor, partial curve, poor fit]. For `O=C(CNC(=O)c1ccco1)N/N=C/c1cc(Br)ccc1O`, the Potency was inconclusive: 16.8 µM [inhibitor, partial curve, poor fit]. With `CCCc1cc(=O)c2c(O)ccc(OC)c2o1` the “activity change, negative = inhibition” value was inactive: 6.51%. In the case of `Cc1ccc(NC(=O)Cc2ccc(-c3ccccc3)cc2)nc1`, the Potency is reported as inconclusive: 22.4 µM [inhibitor, partial curve, poor fit]. For `COc1cc(OC)c(-c2oc3ccccc3c(=O)c2O)c(OC)c1`, the Potency was inconclusive: 25.1 µM [inhibitor, partial curve, poor fit]. In the case of `Cc1ccc(S(=O)(=O)c2cn(CC(=O)Nc3cccc(C)c3)c3cc4c(cc3c2=O)OCO4)cc1`, the “activity change, negative = inhibition” value is reported as inactive: 3.91%. For `COC1C(CO)OC(n2c3c(Cl)cccc3c3c4c(c5c6cccc(Cl)c6[nH]c5c32)C(=O)NC4=O)C(O)C1O` (stereo not drawn), the Potency was inconclusive: 0.474 µM [inhibitor, full curve]. For `C=CCn1c(-c2csc(-c3ccccc3)n2)n[nH]c1=S`, the “activity change, negative = inhibition” value was inactive: 0.0753%. With `CC1ON=C(c2ccccn2)N(Cc2ccc3c(c2)OCO3)C1=O` (stereo not drawn) the “activity change, negative = inhibition” value was inactive: -1.17%. With `CCOC(=O)C1(NC(=O)C2(NC(=O)CN3C(=O)c4ccccc4C3=O)CCCC2)CCCC1` the “activity change, negative = inhibition” value was inactive: 1.95%. For `COc1ccc2c(c1)c(CCNNC(=O)C(C)(C)C)c(C)n2C(=O)c1ccc(Cl)cc1`, the Potency was inconclusive: 31.6 µM [inhibitor, single point]. With `Cc1cc(C)cc(N(C(=O)c2ccccn2)C(C(=O)NC2CCCCC2)c2cccs2)c1` (stereo not drawn) the Potency was inconclusive: 31.6 µM [inhibitor, partial curve, poor fit]. For `COc1cc(C(=O)NC(=S)NNC(=O)c2ccc3c(c2)OCO3)cc(OC)c1OC`, the Potency was inconclusive: 12.6 µM [inhibitor, partial curve, poor fit]. For `Cc1nn(Cc2ccc(Cl)c(Cl)c2)c(C)c1NC(=O)c1cc(CC(C)C)on1`, the Potency was inconclusive: 28.2 µM [inhibitor, single point]. For `O=C(NCc1cccc(C(F)(F)F)c1)c1[nH]c(C(F)(F)F)nc1-c1ccccc1`, the Potency was inconclusive: 22.4 µM [inhibitor, partial curve, poor fit]. In the case of `Cc1nc2ccccc2c(=O)n1-c1ccc(NC(=O)c2ccccc2[N+](=O)[O-])cc1`, the Potency is reported as inconclusive: 39.8 µM [inhibitor, single point]. For `CN(C)CCCN(C(=O)/C=C/c1cccs1)c1nc2ccc(F)cc2s1`, the Potency was inconclusive: 39.8 µM [inhibitor, single point]. For `Cc1cccc(C(=O)NNC(=O)c2c(-c3ccccc3Cl)noc2C)c1O`, the activity change, negative = inhibition was inconclusive: -50.5% [inhibitor]. For `Cc1ccc(NC2=Nc3ccccc3N3C2=Nc2c(c(C)nn2-c2ccccc2)C3c2ccc(O)c(O)c2)cc1` (stereo not drawn), the Potency was inconclusive: 20 µM [inhibitor, partial curve]. For `Cc1ccc(-c2cc(C(=O)Oc3ccc(C#N)cc3)no2)cc1`, the “activity change, negative = inhibition” value was inactive: -2.63%. For `CC[C@H](C)[C@@H]1NC(=O)[C@H]([C@@H](C)CC)NC(=O)[C@@H](CC(C)C)NC(=O)[C@H](Cc2ccccc2)NC(=O)[C@H](Cc2ccccc2)NC(=O)[C@@H]2CCCN2C(=O)[C@@H]2CCCN2C(=O)[C@H](C(C)C)NC(=O)[C@H](CC(C)C)NC1=O`, the Potency was inconclusive: 35.5 µM [inhibitor, single point]. With `CC(C)CC(=O)NC(=S)NNC(=O)c1ccc(NC(=O)C2CCCCC2)cc1` the Potency was inconclusive: 39.8 µM [inhibitor, single point]. In the case of `CC(C(=O)c1ccc(-c2ccccc2)cc1)[n+]1ccccc1` (stereo not drawn), the Potency is reported as inconclusive: 31.6 µM [inhibitor, single point]. With `CCOc1ccc(NC(=S)N(CCCN2CCOCC2)Cc2cn(C)c3ccccc23)cc1` the “activity change, negative = inhibition” value was inactive: -36.5%. In the case of `COc1ccc(-c2noc(CCC(=O)NCCCN3CCN(c4ccccc4F)CC3)n2)cc1`, the “activity change, negative = inhibition” value is reported as inactive: -25.1%. For `Cc1ccc(OCc2nnc(SCC(=O)Nc3ccc4c(c3)OCCO4)n2Cc2ccco2)cc1`, the “activity change, negative = inhibition” value was inactive: 11.1%. In the case of `CCn1cc(C(=O)Nc2cccc(Cl)c2)c2cc(OC)c(OC)cc2c1=O`, the Potency is reported as inconclusive: 39.8 µM [inhibitor, partial curve, poor fit]. With `CCN1CCN(Cc2ccc(NC(=O)c3cc(NC(=O)N4CCNC4=O)cc(OC)c3)cc2C(F)(F)F)CC1` the Potency was inconclusive: 12.6 µM [inhibitor, partial curve, poor fit] and inconclusive: 25.1 µM [inhibitor, single point]. With `O=C(Nc1ccc(Cl)cc1)C1Cc2c(-c3ccc4c(c3)OCO4)ccnc2O1` (stereo not drawn) the Potency was inconclusive: 17.8 µM [inhibitor, partial curve, poor fit]. For `O=C(O)C1CCCN1S(=O)(=O)c1cccc2nsnc12` (stereo not drawn), the Potency was inconclusive: 10.6 µM [inhibitor, partial curve, poor fit].
